Test results taken from the supplement of paper PMC3334620.
In all, about 33,000 sequences were measured (“E-score (-0.5 to 0.5)”: median about -0.011, highest 2% from about 0.28 on). This is one part of the list.

Each sequence was assayed against T1, Gcr1 (UniProt P07261) (assay: PBM E-score (8-mer binding enrichment) (E-score (-0.5 to 0.5)); higher = stronger / more preferred TF binding; most listed sequences are background and not binding sites). Conditions: protein concentration: 100 nM; construct: GST-full length.
T1 sequence: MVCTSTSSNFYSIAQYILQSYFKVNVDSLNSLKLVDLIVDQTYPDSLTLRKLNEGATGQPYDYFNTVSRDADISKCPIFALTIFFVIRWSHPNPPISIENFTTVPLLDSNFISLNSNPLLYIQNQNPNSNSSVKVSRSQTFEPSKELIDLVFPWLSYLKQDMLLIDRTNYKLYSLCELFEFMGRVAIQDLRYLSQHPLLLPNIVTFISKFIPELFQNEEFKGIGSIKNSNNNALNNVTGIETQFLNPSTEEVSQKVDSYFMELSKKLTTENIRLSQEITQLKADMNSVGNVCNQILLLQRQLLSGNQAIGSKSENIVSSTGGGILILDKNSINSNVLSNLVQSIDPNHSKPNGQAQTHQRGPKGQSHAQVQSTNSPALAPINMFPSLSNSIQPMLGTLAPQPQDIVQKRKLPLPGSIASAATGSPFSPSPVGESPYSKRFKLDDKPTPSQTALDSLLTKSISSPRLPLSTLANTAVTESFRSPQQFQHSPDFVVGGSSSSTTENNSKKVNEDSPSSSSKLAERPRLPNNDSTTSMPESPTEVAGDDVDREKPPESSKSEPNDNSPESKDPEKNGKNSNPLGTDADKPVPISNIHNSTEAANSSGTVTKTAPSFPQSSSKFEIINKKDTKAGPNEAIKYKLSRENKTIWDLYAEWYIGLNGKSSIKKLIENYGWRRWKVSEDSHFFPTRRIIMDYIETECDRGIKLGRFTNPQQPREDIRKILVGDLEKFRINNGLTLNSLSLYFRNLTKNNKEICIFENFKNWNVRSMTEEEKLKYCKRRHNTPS
Description: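 Universal 'all 10-mer' protein binding microarrays (Agilent AMADID 015681) probed with GST-tagged S. cerevisiae TFs (full-length or DBD) made by in vitro transcription/translation (PURExpress), about 100-200 nM. Bound TF was detected with fluorescent anti-GST. Each ungapped 8-mer (which stands for itself and its reverse complement) is scored by the PBM enrichment score (E-score), a modified Wilcoxon-Mann-Whitney statistic from -0.5 to +0.5, computed with the Universal PBM Analysis Suite. Scale: above 0.35 generally sequence-specific binding.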

Compared with ATTTACTG, ACACTAGT is lower in “PBM E-score” value: 0.0775 for the first, 0.0402 for the second.

First: AATGCCCC
Second: CCGCGCAA
The “PBM E-score” value of the first is higher: -0.00536 for the first, -0.187 for the second.

Compared with CGATTCGA, AATACTGC is lower in “PBM E-score” value: 0.17 for the first, -0.128 for the second.

Going from CAGCCGGA to TCATTCCA, the “PBM E-score” value falls from 0.128 to -0.105.

Going from GTGCCGCA to CAATGGCG, the “PBM E-score” value falls from -0.0128 to -0.0196.

First: TCGAGGCA
Second: AGCTCGAA
The “PBM E-score” value of the first is lower: -0.167 for the first, 0.0664 for the second.

First: AAGTATAA
Second: GCCCACAA
The “PBM E-score” value of the first is lower: -0.165 for the first, 0.144 for the second.

First: ACGGCACC
Second: CATTCCTA
The “PBM E-score” value of the first is higher: 0.142 for the first, -0.0304 for the second.

Going from ACTCCTTA to TCGAATCA, the “PBM E-score” value falls from 0.0309 to -0.0159.

First: ACCTAAGT
Second: ATTGTCAA
The “PBM E-score” value of the first is lower: -0.0904 for the first, -0.00093 for the second.

Going from AACTAACC to CGAGAGCC, the “PBM E-score” value falls from 0.0776 to -0.13.

Compared with CAGTTACC, ACGGGACT is lower in “PBM E-score” value: -0.0958 for the first, -0.172 for the second.

First: GATAAATC
Second: AAAAGCGC
The “PBM E-score” value of the first is lower: -0.0956 for the first, -0.0384 for the second.

Going from GAAATGGC to CGTAGGGC, the “PBM E-score” value falls from -0.0112 to -0.108.

Going from AATTGACA to AGCCTAGA, the “PBM E-score” value falls from 0.0157 to -0.127.

Going from ACGCCGCA to TCCCTCCA, the “PBM E-score” value falls from 0.107 to -0.249.

Going from CAGCGGTA to CATAGAAG, the “PBM E-score” value rises from -0.169 to -0.0428.

First: ATGTATTG
Second: AATTCCTG
The “PBM E-score” value of the first is lower: 0.0843 for the first, 0.139 for the second.

Compared with CAGACAGC, GTGCGTAA is higher in “PBM E-score” value: -0.0536 for the first, 0.0201 for the second.

Compared with ACAAGAGC, GTCTCATA is lower in “PBM E-score” value: 0.007 for the first, -0.093 for the second.

First: CTTCGCAC
Second: TGGAACAA
The “PBM E-score” value of the first is higher: 0.0523 for the first, -0.0703 for the second.

Compared with AATGCGCA, AGTTACGG is higher in “PBM E-score” value: -0.0656 for the first, 0.0652 for the second.

First: CATTTTTC
Second: AACAATAC
The “PBM E-score” value of the first is higher: 0.0497 for the first, -0.124 for the second.

Going from ATTACAAA to TCACCACA, the “PBM E-score” value rises from -0.087 to -0.0822.

Compared with CAGGTATC, ATACGAAA is lower in “PBM E-score” value: 0.311 for the first, 0.182 for the second.

First: CCGCCCGA
Second: GACCCACA
The “PBM E-score” value of the first is higher: 0.125 for the first, 0.101 for the second.

First: AGATGTTC
Second: ACAATTCG
The “PBM E-score” value of the first is lower: 0.0979 for the first, 0.101 for the second.

Going from CGGCACAA to AAATCCGC, the “PBM E-score” value rises from -0.139 to -0.0711.

Compared with AAATACGC, AAGTCTTC is lower in “PBM E-score” value: 0.0151 for the first, -0.2 for the second.

Going from ATTCAGCG to CAAGCCAC, the “PBM E-score” value falls from 0.0196 to -0.124.

Compared with AGACCCTA, GCCGTAAC is higher in “PBM E-score” value: -0.0538 for the first, 0.0121 for the second.

First: CTGTTAAA
Second: CGCTGCAC
The “PBM E-score” value of the first is lower: -0.0778 for the first, 0.109 for the second.

Compared with GGTTTGTA, ACTAATAC is higher in “PBM E-score” value: -0.12 for the first, 0.137 for the second.

Going from CCATGTAC to CGGCCTTC, the “PBM E-score” value falls from 0.0066 to -0.116.

Compared with AAATCGAG, ACCAGGGG is higher in “PBM E-score” value: -0.0738 for the first, 0.0324 for the second.

First: TATATCCA
Second: AACCAGGG
The “PBM E-score” value of the first is higher: 0.116 for the first, -0.113 for the second.

First: ATGCAACA
Second: CACAGTCG
The “PBM E-score” value of the first is higher: -0.0861 for the first, -0.221 for the second.

Compared with ATATATAC, AGCTCCCG is lower in “PBM E-score” value: 0.124 for the first, -0.014 for the second.

First: CATTCAAA
Second: GCTCCGTA
The “PBM E-score” value of the first is higher: 0.183 for the first, 0.153 for the second.

Going from GTAGGAAA to AGAATTTG, the “PBM E-score” value rises from 0.0638 to 0.161.

Going from GTGTCAAC to AAAGCTGG, the “PBM E-score” value rises from -0.0927 to -0.0228.

Going from CGAACTCC to CAACCCCG, the “PBM E-score” value falls from 0.181 to -0.0459.

Compared with GCCTCAGA, AACCCAGC is higher in “PBM E-score” value: -0.141 for the first, 0.0411 for the second.

Compared with GCGGACAC, GCCTATAA is higher in “PBM E-score” value: 0.00647 for the first, 0.17 for the second.

Compared with AGGGTTGG, CAATTTTA is higher in “PBM E-score” value: -0.0979 for the first, -0.0169 for the second.

First: TACCGATA
Second: AATTGTCT
The “PBM E-score” value of the first is higher: 0.124 for the first, -0.147 for the second.

Compared with CCCGTCCG, ACTCCAGC is higher in “PBM E-score” value: -0.198 for the first, -0.0861 for the second.

Going from CCAATCCA to GCGACAGC, the “PBM E-score” value falls from -0.0361 to -0.0838.

Going from AAGATGCT to AAGAATGA, the “PBM E-score” value falls from 0.288 to -0.172.

Compared with TCTTCCCA, AACCTTGT is higher in “PBM E-score” value: -0.172 for the first, -0.0184 for the second.

First: CAGGGGTA
Second: CGCTAGCG
The “PBM E-score” value of the first is higher: -0.0642 for the first, -0.1 for the second.

Compared with ACCGTCAT, ACCACTAG is higher in “PBM E-score” value: -0.0894 for the first, 0.267 for the second.

Going from CCTCGACG to CGGCCCAG, the “PBM E-score” value falls from -0.143 to -0.211.

First: AACCCCAT
Second: CAAGCACG
The “PBM E-score” value of the first is higher: 0.225 for the first, -0.0729 for the second.

First: GCGGCGTA
Second: AACCCCAC
The “PBM E-score” value of the first is higher: 0.0853 for the first, -0.0522 for the second.

First: GACTCCCC
Second: AGAGGGGG
The “PBM E-score” value of the first is higher: 0.0306 for the first, -0.298 for the second.

First: AAACACGG
Second: ACGCGAAG
The “PBM E-score” value of the first is lower: -0.0152 for the first, 0.0871 for the second.

Going from ACATTGTG to ACATGGCA, the “PBM E-score” value rises from -0.166 to -0.0219.

Compared with CAACCCGA, CGTTTCGA is lower in “PBM E-score” value: 0.0742 for the first, -0.201 for the second.

Going from ACGTGGCC to ATTAATTA, the “PBM E-score” value rises from -0.174 to 0.136.

First: AGGAGTGA
Second: AAACTACC
The “PBM E-score” value of the first is lower: -0.0787 for the first, 0.0598 for the second.

First: AGTGCAGC
Second: ACGATCGA
The “PBM E-score” value of the first is higher: 0.0946 for the first, -0.179 for the second.

First: AGTGACGC
Second: AATATGAT
The “PBM E-score” value of the first is lower: -0.0847 for the first, 0.0787 for the second.

Going from GTTCCTGA to CGCTTTTA, the “PBM E-score” value rises from 0.118 to 0.144.

Compared with ATCACGGC, GAGTAAGA is lower in “PBM E-score” value: 0.0519 for the first, -0.072 for the second.

Going from GGACGGGA to GCTTAACC, the “PBM E-score” value rises from -0.169 to -0.162.

First: AACCACTA
Second: GTGCCGGA
The “PBM E-score” value of the first is higher: 0.241 for the first, 0.169 for the second.

Going from CCGTCTCG to CTAGAGGC, the “PBM E-score” value rises from -0.0715 to 0.0669.

Compared with TGCAGGCA, ACCCTTGG is lower in “PBM E-score” value: 0.0947 for the first, -0.0616 for the second.

Going from TCCAGCCA to AGCAAGGC, the “PBM E-score” value falls from 0.0161 to -0.139.

First: CCAATCGC
Second: TACAGTGA
The “PBM E-score” value of the first is lower: -0.176 for the first, -0.0134 for the second.

First: ACAAGTCA
Second: GGCATAAC
The “PBM E-score” value of the first is higher: -0.0209 for the first, -0.249 for the second.

Compared with AACATGGG, CTGTCGGA is lower in “PBM E-score” value: 0.0296 for the first, -0.0666 for the second.

Compared with ACACGTGG, AGATGCTA is higher in “PBM E-score” value: 0.0635 for the first, 0.25 for the second.

Compared with AAATGCAT, ATGACAGG is higher in “PBM E-score” value: -0.0522 for the first, -0.0161 for the second.

Going from AACAAGGC to CACGATTC, the “PBM E-score” value rises from -0.133 to 0.0682.

Going from GCTCGACA to CAGGCCTC, the “PBM E-score” value falls from 0.0183 to -0.123.

First: CGAAACAC
Second: GACTTCCC
The “PBM E-score” value of the first is higher: 0.13 for the first, 0.127 for the second.

Going from TACTGCAA to ACCTGGAG, the “PBM E-score” value rises from -0.0122 to 0.0814.

Compared with AACTTGCT, TATTCCGA is lower in “PBM E-score” value: 0.0674 for the first, 0.0257 for the second.

Going from CGCATAAC to ATTACGTC, the “PBM E-score” value falls from -0.0637 to -0.222.

Going from AGATTGGA to CCTATACC, the “PBM E-score” value falls from 0.192 to -0.107.

First: GGCGATCA
Second: CAGACAGG
The “PBM E-score” value of the first is lower: -0.0747 for the first, 0.0378 for the second.

First: GAACCTAA
Second: GGAGGGAA
The “PBM E-score” value of the first is higher: 0.113 for the first, -0.0438 for the second.

Compared with CGCCAAAC, AAGGGCTG is lower in “PBM E-score” value: -0.0653 for the first, -0.15 for the second.

Compared with CCGATATC, ACGCGGTG is higher in “PBM E-score” value: -0.147 for the first, -0.0712 for the second.
